Like-named read-outs stand apart in the source and are kept apart here.
System: C. difficile strain 630
Design: species or system Golden Syrian hamsters
Conditions: hamster, in vivo, po

Compound	Median Survival (50 mg/kg)	Median Survival (5 mg/kg)
O=C(Nc1ccc(C(F)(F)F)cn1)c1ccc(CN2C(=O)c3ccc(Cl)cc3NC(=O)[C@H]2Cc2ccccn2)cc1Cl [Example 5ae, (R)-2-Chloro-4-((8-chloro-2,5-dioxo-3-(pyridin-2-ylmethyl)-2,3-dihydro-1H-benzo[e][1,4]diazepin-4(5H)-yl)methyl)-N-(5-(trifluoromethyl)pyridin-2-yl)benzamide]	12.3 days	
CN[C@H](CC(C)C)C(=O)N[C@H]1C(=O)N[C@@H](CC(N)=O)C(=O)N[C@H]2C(=O)N[C@H]3C(=O)N[C@H](C(=O)N[C@H](C(=O)O)c4cc(O)cc(O)c4-c4cc3ccc4O)[C@H](O)c3ccc(c(Cl)c3)Oc3cc2cc(c3O[C@@H]2O[C@H](CO)[C@@H](O)[C@H](O)[C@H]2O[C@H]2C[C@](C)(N)[C@H](O)[C@H](C)O2)Oc2ccc(cc2Cl)[C@H]1O [vancomycin, reference compound]		12.0 days
